Measured values as given in patent publication US11034759B2, “Humanized M-CSF specific monoclonal antibodies, kits, and uses thereof” (NOVARTIS VACCINES AND DIAGNOSTICS, INC., priority 2004, dated 2021).

T1: MCSF (Homo sapiens, UniProt P09603)
T1 sequence (P09603 33-255 limits assumed): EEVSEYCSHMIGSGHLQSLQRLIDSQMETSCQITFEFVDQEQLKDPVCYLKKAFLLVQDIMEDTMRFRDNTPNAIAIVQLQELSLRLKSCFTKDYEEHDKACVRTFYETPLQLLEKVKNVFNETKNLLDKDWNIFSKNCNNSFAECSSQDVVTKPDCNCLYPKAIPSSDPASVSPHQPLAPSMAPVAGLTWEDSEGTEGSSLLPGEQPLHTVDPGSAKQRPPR


Tests used:
[1] = molecular target: T1, MCSF; test: Biacore analysis, M-CSF immobilized, intact Mab or Fab flowed over (Example 11); format: binding; details: Table 9, 25° C., 1:1 interaction model
Experimental: Specifically, M-CSF was immobilized onto CMS biosensor chip via amine coupling. 0.05 μg/ml M-CSF in 10 mM Na Acetate pH 4.0 was injected at 1 μl/min for 5 minutes to achieve RL=6-12 RU. Test antibody (or Fab fragment) were flowed over the modified biosensor surface at varying concentrations. Test antibodies were diluted in 0.01 M HEPES pH 7.4, 0.15 M NaCL, 3 mM EDTA, 0.005% Surfactant P20 (HBS-EP) and all experiments were done at 25° C. Kinetic and affinity constants were determined using Biaevaluation software (Biacore) with a 1:1 interaction model/global fit.

[2] = molecular target: T1, MCSF; test: M-CSF-dependent cell proliferation, intact antibody versus Fab fragments; format: cell-based; details: chemiluminescent dye
Experimental: The cell proliferation was determined by chemiluminescent dye.

Molecule	Ka [1] [M⁻¹ s⁻¹]	Kd [1] [s⁻¹]	Neutralization potency, intact versus Fab [2]
rRX1 Fab (mouse): Fab fragment of RX1 (antibody, V domains shown) VH: DVQLQESGPGLVKPSQSLSLTCTVTDYSITSDYAWNWIRQFPGNKLEWMGYISYSGSTSYNPSLKSRISITRDTSKNQFFLQLNSVTTEDTATYYCASFDYAHAMDYWGQGTSVTVSS VL: DILLTQSPAILSVSPGERVSFS[about 80 residues cut from this listing]FGGGTKLEIKRA	281000	0.00303	loses its potency
rRX1(mouse): recombinant murine RX1 antibody (antibody, V domains shown) VH: DVQLQESGPGLVKPSQSLSLTCTVTDYSITSDYAWNWIRQFPGNKLEWMGYISYSGSTSYNPSLKSRISITRDTSKNQFFLQLNSVTTEDTATYYCASFDYAHAMDYWGQGTSVTVSS VL: DILLTQSPAILSVSPGERVSFS[about 80 residues cut from this listing]FGGGTKLEIKRA	234000	0.000235	–
